# Measured values as given in the supplement of paper PMC8728848.
# The list shows a part of the results.
# Legend:
# Test in all cases: glycan array binding signal (z-score within array); higher = stronger binding
# Conditions in all cases: glycan notation: IUPAC condensed, linker removed
# [1] = molecular target: Neu5Ac(a2-3)Gal(b1-4)GlcNAc(b1-3)[Neu5Ac(a2-3)Gal(b1-4)GlcNAc(b1-6)]GalNAc
# Outline: (§1)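 The binding signal is a Z-score computed within each array and averaged over linkers. Arrays of the same protein sequence at different concentrations or buffers were also averaged together. Data originate from 3228 arrays in the Consortium for Functional Glycomics database, kept only where the protein sequence was available.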
# [2] = molecular target: Neu5Ac(a2-3)Gal(b1-4)GlcNAc(b1-6)GalNAc
# Outline: as §1
# [3] = molecular target: Neu5Ac(a2-3)Gal(b1-4)GlcNAc(b1-6)[Gal(b1-3)]GalNAc
# Outline: as §1
# [4] = molecular target: Neu5Ac(a2-3)Gal(b1-4)GlcNAc(b1-6)[Neu5Ac(a2-3)Gal(b1-3)]GalNAc
# Outline: as §1
# [5] = molecular target: Neu5Ac(a2-3)Gal(b1-4)GlcNAc6S
# Outline: as §1
# [6] = molecular target: Neu5Ac(a2-3)Gal(b1-4)[Fuc(a1-3)]GlcNAc
# Outline: as §1
# [7] = molecular target: Neu5Ac(a2-3)Gal(b1-4)[Fuc(a1-3)]GlcNAc(b1-2)Man
# Outline: as §1
# [8] = molecular target: Neu5Ac(a2-3)Gal(b1-4)[Fuc(a1-3)]GlcNAc(b1-3)Gal
# Outline: as §1
# [9] = molecular target: Neu5Ac(a2-3)Gal(b1-4)[Fuc(a1-3)]GlcNAc(b1-3)Gal(b1-4)GlcNAc
# Outline: as §1
# [10] = molecular target: Neu5Ac(a2-3)Gal(b1-4)[Fuc(a1-3)]GlcNAc(b1-3)Gal(b1-4)[Fuc(a1-3)]GlcNAc(b1-3)Gal(b1-4)[Fuc(a1-3)]GlcNAc
# Outline: as §1
# [11] = molecular target: Neu5Ac(a2-3)Gal(b1-4)[Fuc(a1-3)]GlcNAc(b1-3)GalNAc
# Outline: as §1
# [12] = molecular target: Neu5Ac(a2-3)Gal(b1-4)[Fuc(a1-3)]GlcNAc(b1-6)[Gal(b1-3)]GalNAc
# Outline: as §1
# [13] = molecular target: Neu5Ac(a2-3)Gal(b1-4)[Fuc(a1-3)]GlcNAc(b1-6)[Neu5Ac(a2-3)Gal(b1-3)]GalNAc
# Outline: as §1
# [14] = molecular target: Neu5Ac(a2-3)Gal(b1-4)[Fuc(a1-3)]GlcNAc6S
# Outline: as §1
# [15] = molecular target: Neu5Ac(a2-3)Gal6S(b1-4)GlcNAc
# Outline: as §1
# [16] = molecular target: Neu5Ac(a2-3)Gal6S(b1-4)[Fuc(a1-3)]GlcNAc
# Outline: as §1
# Neu5Ac(a2-3)GalNAc = molecular target: Neu5Ac(a2-3)GalNAc
# Outline: as §1
# [17] = molecular target: Neu5Ac(a2-3)GalNAc(b1-4)GlcNAc
# Outline: as §1
# [18] = molecular target: Neu5Ac(a2-3)[GalNAc(b1-4)]Gal(b1-4)Glc
# Outline: as §1
# [19] = molecular target: Neu5Ac(a2-3)[GalNAc(b1-4)]Gal(b1-4)GlcNAc
# Outline: as §1
# [20] = molecular target: Neu5Ac(a2-3)[GalNAc(b1-4)]Gal(b1-4)GlcNAc(b1-3)GalNAc
# Outline: as §1
# [21] = molecular target: Neu5Ac(a2-3)[Neu5Ac(a2-6)]GalNAc
# Outline: as §1
# Neu5Ac(a2-6)Gal = molecular target: Neu5Ac(a2-6)Gal
# Outline: as §1
# [22] = molecular target: Neu5Ac(a2-6)Gal(b1-3)GlcNAc(b1-3)[Gal(b1-4)GlcNAc(b1-6)]Gal(b1-4)Glc
# Outline: as §1
# Neu5Ac(a2-6)Gal(b1-4)Glc = molecular target: Neu5Ac(a2-6)Gal(b1-4)Glc
# Outline: as §1
# [23] = molecular target: Neu5Ac(a2-6)Gal(b1-4)GlcNAc
# Outline: as §1
# [24] = molecular target: Neu5Ac(a2-6)Gal(b1-4)GlcNAc(b1-2)Man
# Outline: as §1
# [25] = molecular target: Neu5Ac(a2-6)Gal(b1-4)GlcNAc(b1-2)Man(a1-3)Man(b1-4)GlcNAc(b1-4)GlcNAc
# Outline: as §1
# [26] = molecular target: Neu5Ac(a2-6)Gal(b1-4)GlcNAc(b1-2)Man(a1-3)[Gal(b1-4)GlcNAc(b1-2)Man(a1-6)]Man(b1-4)GlcNAc(b1-4)GlcNAc
# Outline: as §1
# [27] = molecular target: Neu5Ac(a2-6)Gal(b1-4)GlcNAc(b1-2)Man(a1-3)[GlcNAc(b1-2)Man(a1-6)]Man(b1-4)GlcNAc(b1-4)GlcNAc
# Outline: as §1
# [28] = molecular target: Neu5Ac(a2-6)Gal(b1-4)GlcNAc(b1-2)Man(a1-3)[GlcNAc(b1-4)][Neu5Ac(a2-6)Gal(b1-4)GlcNAc(b1-2)Man(a1-6)]Man(b1-4)GlcNAc(b1-4)GlcNAc
# Outline: as §1
# [29] = molecular target: Neu5Ac(a2-6)Gal(b1-4)GlcNAc(b1-2)Man(a1-3)[Man(a1-6)]Man(b1-4)GlcNAc(b1-4)GlcNAc
# Outline: as §1
# [30] = molecular target: Neu5Ac(a2-6)Gal(b1-4)GlcNAc(b1-2)Man(a1-3)[Neu5Ac(a2-3)Gal(b1-4)GlcNAc(b1-2)Man(a1-6)]Man(b1-4)GlcNAc(b1-4)GlcNAc
# Outline: as §1
# [31] = molecular target: Neu5Ac(a2-6)Gal(b1-4)GlcNAc(b1-2)Man(a1-3)[Neu5Ac(a2-6)Gal(b1-4)GlcNAc(b1-2)Man(a1-6)]Man(b1-4)GlcNAc(b1-4)GlcNAc
# Outline: as §1
# [32] = molecular target: Neu5Ac(a2-6)Gal(b1-4)GlcNAc(b1-2)Man(a1-3)[Neu5Ac(a2-6)Gal(b1-4)GlcNAc(b1-2)Man(a1-6)]Man(b1-4)GlcNAc(b1-4)[Fuc(a1-6)]GlcNAc
# Outline: as §1
# [33] = molecular target: Neu5Ac(a2-6)Gal(b1-4)GlcNAc(b1-2)Man(a1-6)Man(b1-4)GlcNAc(b1-4)GlcNAc
# Outline: as §1
# [34] = molecular target: Neu5Ac(a2-6)Gal(b1-4)GlcNAc(b1-2)Man(a1-6)[Gal(b1-4)GlcNAc(b1-2)Man(a1-3)]Man(b1-4)GlcNAc(b1-4)GlcNAc
# Outline: as §1
# [35] = molecular target: Neu5Ac(a2-6)Gal(b1-4)GlcNAc(b1-2)Man(a1-6)[GlcNAc(b1-2)Man(a1-3)]Man(b1-4)GlcNAc(b1-4)GlcNAc
# Outline: as §1
# [36] = molecular target: Neu5Ac(a2-6)Gal(b1-4)GlcNAc(b1-2)Man(a1-6)[Man(a1-3)]Man(b1-4)GlcNAc(b1-4)GlcNAc
# Outline: as §1
# [37] = molecular target: Neu5Ac(a2-6)Gal(b1-4)GlcNAc(b1-2)[Neu5Ac(a2-6)Gal(b1-4)GlcNAc(b1-4)]Man(a1-3)[GlcNAc(b1-4)][Neu5Ac(a2-6)Gal(b1-4)GlcNAc(b1-2)[Neu5Ac(a2-6)Gal(b1-4)GlcNAc(b1-6)]Man(a1-6)]Man(b1-4)GlcNAc(b1-4)GlcNAc
# Outline: as §1
# [38] = molecular target: Neu5Ac(a2-6)Gal(b1-4)GlcNAc(b1-2)[Neu5Ac(a2-6)Gal(b1-4)GlcNAc(b1-4)]Man(a1-3)[GlcNAc(b1-4)][Neu5Ac(a2-6)Gal(b1-4)GlcNAc(b1-4)Man(a1-6)]Man(b1-4)GlcNAc(b1-4)GlcNAc
# Outline: as §1
# [39] = molecular target: Neu5Ac(a2-6)Gal(b1-4)GlcNAc(b1-2)[Neu5Ac(a2-6)Gal(b1-4)GlcNAc(b1-6)]Man(a1-6)[Neu5Ac(a2-6)Gal(b1-4)GlcNAc(b1-2)Man(a1-3)][GlcNAc(b1-4)]Man(b1-4)GlcNAc(b1-4)GlcNAc
# Outline: as §1
# [40] = molecular target: Neu5Ac(a2-6)Gal(b1-4)GlcNAc(b1-3)Gal(b1-3)GlcNAc
# Outline: as §1
# [41] = molecular target: Neu5Ac(a2-6)Gal(b1-4)GlcNAc(b1-3)Gal(b1-4)GlcNAc
# Outline: as §1
# [42] = molecular target: Neu5Ac(a2-6)Gal(b1-4)GlcNAc(b1-3)Gal(b1-4)GlcNAc(b1-2)Man(a1-3)[Neu5Ac(a2-6)Gal(b1-4)GlcNAc(b1-3)Gal(b1-4)GlcNAc(b1-2)Man(a1-6)]GalNAc
# Outline: as §1
# [43] = molecular target: Neu5Ac(a2-6)Gal(b1-4)GlcNAc(b1-3)Gal(b1-4)GlcNAc(b1-3)Gal(b1-4)GlcNAc
# Outline: as §1
binder,measurement,setting,value
LFA (Limax flavus) (protein) MSVLFLAASFLLLASFELVAAQGCPRQDPGDWIVIQRRLNADVNFYRGWADYKHGFGDLRCNFWLGNEKIHQLTSHGRYKLRVEFTFNNKSYFAEYSTFKILGEADKYKLQVGGYSGNAGDALTFHNGMAFSTNDRDNDADSIDCAKVYHGAWWYKTCHESNLNGKWGSKKYGEGLNWKAKTTFTATATSSLLKIKALK,glycan array binding signal (z-score),[1],-0.317
same,glycan array binding signal (z-score),[2],-0.274
same,glycan array binding signal (z-score),[3],-0.238
same,glycan array binding signal (z-score),[4],-0.305
same,glycan array binding signal (z-score),[5],-0.046
same,glycan array binding signal (z-score),[6],-0.015
same,glycan array binding signal (z-score),[7],-0.283
same,glycan array binding signal (z-score),[8],0.297
same,glycan array binding signal (z-score),[9],-0.178
same,glycan array binding signal (z-score),[10],0.189
same,glycan array binding signal (z-score),[11],-0.146
same,glycan array binding signal (z-score),[12],0.028
same,glycan array binding signal (z-score),[13],-0.142
same,glycan array binding signal (z-score),[14],-0.227
same,glycan array binding signal (z-score),[15],-0.019
same,glycan array binding signal (z-score),[16],-0.35
same,glycan array binding signal (z-score),Neu5Ac(a2-3)GalNAc,-0.295
same,glycan array binding signal (z-score),[17],-0.338
same,glycan array binding signal (z-score),[18],0.025
same,glycan array binding signal (z-score),[19],0.019
same,glycan array binding signal (z-score),[20],1.88
same,glycan array binding signal (z-score),[21],1.01
same,glycan array binding signal (z-score),Neu5Ac(a2-6)Gal,-0.188
same,glycan array binding signal (z-score),[22],-0.28
same,glycan array binding signal (z-score),Neu5Ac(a2-6)Gal(b1-4)Glc,-0.166
same,glycan array binding signal (z-score),[23],-0.176
same,glycan array binding signal (z-score),[24],-0.245
same,glycan array binding signal (z-score),[25],-0.223
same,glycan array binding signal (z-score),[26],-0.238
same,glycan array binding signal (z-score),[27],-0.166
same,glycan array binding signal (z-score),[28],-0.132
same,glycan array binding signal (z-score),[29],-0.294
same,glycan array binding signal (z-score),[30],-0.357
same,glycan array binding signal (z-score),[31],-0.253
same,glycan array binding signal (z-score),[32],-0.239
same,glycan array binding signal (z-score),[33],-0.199
same,glycan array binding signal (z-score),[34],0.028
same,glycan array binding signal (z-score),[35],-0.297
same,glycan array binding signal (z-score),[36],-0.185
same,glycan array binding signal (z-score),[37],-0.31
same,glycan array binding signal (z-score),[38],-0.274
same,glycan array binding signal (z-score),[39],-0.113
same,glycan array binding signal (z-score),[40],-0.402
same,glycan array binding signal (z-score),[41],-0.31
same,glycan array binding signal (z-score),[42],-0.113
same,glycan array binding signal (z-score),[43],-0.306
